ChEMBL document CHEMBL4888484, “Replenishing the malaria drug discovery pipeline: Screening and hit evaluation of the MMV Hit Generation Library 1 (HGL1) against asexual blood stage Plasmodium falciparum ,using a nano luciferase reporter read-out” (2022)
The whole screen tested about 4,800 compounds, of which about 410 (8.5%) showed an effect of 50% or more. This is one part of the list.

Test system: Plasmodium falciparum
Assay: Confirmatory screen in NF54 pLDH assay, in single point, at 2uM, 72h
Format: functional, Erythrocyte
Details: timepoint 72 hour

Compound	% Inhibition [%]
O=C(CN1CCCC1)Nc1ccc(N2CCn3c(nc4ccccc43)C2)cc1	12
CCOc1ccc(NC(=O)Cn2cnc3c(-c4cccc(OC)c4)cn(C)c3c2=O)cc1	10
CCCn1ccnc1-c1cn(Cc2cc3ccccc3[nH]2)nn1	54
CCOc1ccc(-c2ccnc3c(C(=O)NCCc4c[nH]c5ccc(OC)cc45)cnn23)cc1	-9
CC(=O)Nc1cccc(C#CCN2CCN(c3ccc(F)cc3)CC2)c1	13
COc1ccccc1N1CCN(C(=O)c2nnn(-c3ccccc3Cl)c2-c2cccnc2)CC1	1
Cc1ccnc(CNC(=O)N[C@H]2CCc3ccc(F)cc32)c1	-12
CCn1nc(C)c(CNc2nnc(C3CCCCC3)o2)c1C	-24
Cc1ccc(CN2CCN(CC(=O)NC3CCCCC3C)C2=O)cc1 (configuration not stated)	-5
CC(C)Cn1c(C(F)(F)F)cnc1N	13
O=C(COC[C@H]1CCCO1)Nc1ccc2[nH]c(=O)sc2c1	3
CCC[C@H](C)CS(=O)(=O)NCc1ccnc(OC(C)C)c1	-10
O=C(O[C@@H](c1ccccc1)N1C(=O)C(C(F)(F)F)(C(F)(F)F)c2ccccc21)C(C(F)(F)F)C(F)(F)F	12
COC(OC)c1ccnc2c(C#N)cnn12	-13
COc1cc(C)cc(C)c1S(=O)(=O)N(C)Cc1nnc[nH]1	4
Cc1c(NC(=O)c2n[nH]cc2Cl)c(=O)n(-c2ccccc2)n1C	-18
CCOc1ccc(NC(=O)c2cnc(N(Cc3ccccc3)C(C)C)nc2N)cc1	-12
C[C@H](NC(=O)c1nnn(C)c1C(F)(F)F)c1cscn1	13
CCCc1ccc(Cl)c(S(=O)(=O)Nc2nnc(C3CC3)o2)c1	5
Cc1ccc(N2CCN(c3c(C(=O)N4CCCCC4)cnc4ccc(F)cc34)CC2)cc1	-26
CCO[C@H]1OCCn2c1c(Br)c(=O)n(C)c2=O	-2
Cc1c(-c2nn3c(Cc4ccc(Cl)cc4)nnc3s2)cnn1-c1ccccc1	-12
Cc1ccc(S(=O)(=O)Nc2c(-n3cnnc3)nn(C)c2C)c(C)c1	-1

Compound	% Inhibition [%]
c1ccc2[nH]c(Nc3nc4ccccc4s3)nc2c1	14
Cc1cccc(CN(C(=O)C2CCCC2)c2ccc(CC(=O)NCCN3CCOCC3)cc2)c1	7
C#CCCCCC(=O)Nc1ncccc1Cl	9
CCCNC(=O)c1sccc1NC(=O)c1cnccn1	13
C[C@H]1C(=O)N(C)C[C@@H](CNS(=O)(=O)c2ccccc2)N1Cc1cccnc1	9
CC(C)[C@H](CNc1ncnc2ccsc12)N1CCN(C)CC1	7
CC(C)(C)C1CC(NC(=O)C2CC=CC2)CCO1 (configuration not stated)	-1
O=C(CN1CCN(Cc2ccc(F)cc2)C1=O)N1CCN(c2ccccc2)CC1	0
COc1cc(Br)ccc1C1NC(=O)C2COCCN21 (configuration not stated)	3
CN(C)Cc1ccc(O)c(CCc2ccccc2)n1	25
O=C(Nc1ccsc1C(=O)N1CCCCC1)c1cnccn1	11
CC(CO)(CO)NCc1ccc(F)cc1F	1
FC(F)(F)c1cccc([C@@H]2CNC3(CCCC3)CO2)c1	-22
CCC[C@H](NC(=O)c1ccc(Cl)o1)c1nnn[nH]1	8
O=C1c2ccccc2C(=O)N1CCc1csc(Cn2cncn2)n1	10
Nc1nc(Cc2ccccc2)c(Br)c(=O)[nH]1	5
O=c1[nH]c2nc(N3CCN(c4ccccn4)CC3)ncc2c(=O)n1-c1ccc(F)cc1	2
Cc1ccc(C(=O)Nc2ccc3c(c2)OC(C)(C)C(=O)N3)cc1	-3
COc1ccc(NC(=O)CN2N=C(C(=O)Nc3ccc(F)cc3)CCC2=O)cc1	-1
Cc1nn(-c2ncc(C(F)(F)F)cc2Cl)c(=O)n1-c1cccc(F)c1	7
Cc1nc2ccccc2n1C(=O)c1sc2ccccc2c1Cl	4
Cc1cccc(NC(=O)[C@@H](C#N)C(=O)C2CCC2)c1	8
O=C(CN1CCN(Cc2cccc(Cl)c2)C1=O)N1CCN(c2ccccc2)CC1	4

Compound	% Inhibition [%]
CC1(C)C2Cc3nc4c(cc3C1C2)CCC4 (configuration not stated)	0
Cn1nc(N)c2cc(C(F)(F)F)ccc21	10
O=C(Nc1ccccc1)c1ccc2c(c1)C(=O)N(CCc1ccccc1)C2=O	-15
CCc1ccc(C2=Nc3cccnc3N(CC(=O)Nc3c(C)cc(C)cc3C)C(=O)C2)cc1	2
CC1CCC(NC(=O)C(c2ccccc2)c2ccccc2)CC1 (configuration not stated)	8
Cc1cc(C)cc(-c2cc3nc(C)cc(N4CCC(C(=O)Nc5ccc(C)c(Cl)c5)CC4)n3n2)c1	-12
O=C(O)c1cc2ccoc2n1Cc1ccccc1	7
Cc1ccc(NC(=O)Cn2c(=O)n(Cc3ccco3)c(=O)c3ccccc32)c(C)c1	-13
COc1cccc(-c2cc3c(N4CC=C(c5ccccc5)CC4)nccn3n2)c1	10
O=C(CCc1nc2ccccc2[nH]1)N1CCN(c2ccccn2)CC1	3
CCc1sc(N(C(=O)Cc2ccccc2)c2ccc(C)cc2C)nc1-c1ccc(Cl)cc1	12
O=C(NC1CCCC1)N1CCN(c2nc3cccnc3n(Cc3ccccc3)c2=O)CC1	8
CC1(C)CCCc2sc(NC(=O)N[C@H]3CCOC4(CCC4)C3)nc21	1
Cc1cccc([C@H]2NCCc3sccc32)n1	10
Cc1cc(C(=O)Nc2cc(C)nn2C)nc(N(C)C)n1	8
Cc1c(C)n(CC(O)CNC(C)c2ccccc2)c2c(Cl)cccc12 (configuration not stated)	73
C[C@@H](CC(=O)Nc1cncnc1-n1cccn1)c1ccccc1	10
CN(C)c1ccc(-c2nc(C(F)(F)F)cc(C(F)(F)C(F)(F)F)n2)cc1	5
COc1ccc(C(=O)N2CCN(c3cc(N4CCOCC4)nc(C)n3)CC2)cc1	4
CC(C)N1CCN(C(=O)CN2N=C(c3nc(-c4ccccc4)no3)CCC2=O)CC1	2
CCN1C(=O)CCN(C(=O)c2ccnn2C)CC12CCOCC2	3
